Reference: patent publication US7592316B2, “Peptides as NS3-serine protease inhibitors of hepatitis C virus” (Schering Corporation, priority 2000, dated 2009)
*1 amine or outer side, *2 acyl side, *3 side chain or, on linkers, in order; H or OH if unused. Where a SMILES comes first, the peptide text is derived from it. [ ]: non-standard residue; d: D form. The star is where a group is joined. Pro(3R,4S-CMe2) = CC1(C)[C@@H]2[C@@H](C(=O)O)NC[C@@H]21; Pro(3S,4R-CMe2) = CC1(C)[C@H]2[C@@H](C(=O)O)NC[C@H]21; X50 = O=C(C(=O)[*:2])C(CCCC(F)(F)F)N[*:1]; X100 = O=C(C(=O)[*:2])C(N[*:1])C1CC1; Igl = N[C@H](C(=O)O)C1Cc2ccccc2C1; X4 = CCCCC(N[*:1])C(=O)C(=O)[*:2]; X2 = CCCC(N[*:1])C(=O)C(=O)[*:2]; Chg = N[C@H](C(=O)O)C1CCCCC1; Phg = N[C@H](C(=O)O)c1ccccc1; Tle = CC(C)(C)[C@H](N)C(=O)O; Boc = CC(C)(C)OC(=O)*; X27 = O=C(OC1CCCCC1)*; CO = O=C([*:1])[*:2]; NHPh = c1ccc(N*)cc1; NHtBu = CC(C)(C)N*

Biological target: HCV NS3/NS4A protease (strain 1a) (Hepatitis C virus genotype 1a, UniProt P27958)
Test: biochemical
Details: Table 5; HCV NS3/NS4A protease, spectrophotometric assay, 30° C., pH 6.5; read-out: Ki* Range

Structure (SMILES) | Ki [µM]
CC(C)(C)NC(=O)N[C@H](C(=O)N1C[C@@H]2[C@H]([C@H]1C(=O)NC(CC1CC1)C(=O)C(N)=O)C2(Cl)Cl)C1CCCCC1 (stereo partly shown) | 0.001 to 0.1
COC(=O)C(=O)C1(NC(=O)C2[C@@H]3[C@H](CN2C(=O)[C@@H](NC(=O)OC(C)(C)C)C(C)C)C3(C)C)CC1 (stereo partly shown) | > 1
CCCCC(NC(=O)[C@@H]1[C@H]2[C@@H](CN1C(=O)[C@@H](NC(=O)Nc1ccccc1)C(C)(C)C)C2(C)C)C(=O)C(=O)NCC(=O)N[C@H](C(=O)N(C)C)c1ccccc1 (stereo partly drawn) ({NHPh-CO}-[Tle][Pro(3S,4R-CMe2)][X4]G[Phg]-NMe2) | 0.001 to 0.1
CC(C)OC(=O)N[C@H](C(=O)N1CC2C([C@H]1C(=O)NC(CC1CC1)C(=O)C(=O)NCC(=O)N[C@H](C(=O)N(C)C)c1ccccc1)C2(C)C)C(C)(C)C (stereo partly shown) | 0.001 to 0.1
CCCC(NC(=O)[C@@H]1[C@H]2[C@@H](CN1C(=O)[C@@H](NC(=O)OC1CCCCC1)C(C)(C)C)C2(C)C)C(=O)C(=O)NCC(=O)N[C@H](C(=O)N(C)C)c1ccccc1 (stereo partly drawn) (X27-[Tle][Pro(3S,4R-CMe2)][X2]G[Phg]-NMe2) | 0.001 to 0.1
CCCC(NC(=O)[C@@H]1[C@H]2[C@@H](CN1C(=O)[C@@H](NC(=O)OC(C)(C)C)C1Cc3ccccc3C1)C2(C)C)C(=O)C(=O)NCC(=O)N[C@H](C(=O)N(C)C)c1ccccc1 (stereo partly drawn) (Boc-[Igl][Pro(3S,4R-CMe2)][X2]G[Phg]-NMe2) | 0.001 to 0.1
CC(C)(C)NC(=O)N[C@H](C(=O)N1C[C@H]2[C@@H]([C@H]1C(=O)NC(CC1CC1)C(=O)C(N)=O)C2(C)C)C(C)(C)C (stereo partly shown) | 0.001 to 0.1

Continued, values first:

Ki [µM] | Structure (SMILES)
0.101 to 1 | CC(C)(C)OC(=O)N[C@H](C(=O)N1C[C@H]2[C@@H]([C@H]1C(=O)NC(CC(F)(F)F)C(=O)C(N)=O)C2(C)C)C(C)(C)C (stereo partly shown)
> 1 | CCCC(NC(=O)[C@@H]1CC(c2ccccc2)CN1C(=O)OC(C)(C)C)C(=O)C(=O)OC (stereo partly shown)
0.101 to 1 | C=CCCC(NC(=O)[C@@H]1[C@@H]2[C@H](CN1C(=O)[C@@H](NC(=O)NC1CCCCC1)C1CCCCC1)C2(C)C)C(=O)C(=O)NCC=C (stereo partly shown)
> 1 | CCCC(NC(=O)[C@@H]1[C@@H]2[C@H](CN1C(=O)[C@@H](NC(=O)OC(C)C)C(C)C)C2(C)C)C(=O)C(N)=O (stereo partly shown)
0.101 to 1 | CCC(NC(=O)[C@@H]1[C@@H]2[C@H](CN1C(=O)[C@@H](NC(=O)OC(C)(C)C)C1CCCCC1)C2(C)C)C(=O)C(N)=O (stereo partly shown)
> 1 | CCCC(NC(=O)[C@@H]1[C@@H]2[C@H](CN1C(=O)[C@@H](NC(=O)OC(C)(C)C)C(C)(C)C)C2(C)C)C(=O)C(=O)NCc1ccncc1 (stereo partly shown)
0.101 to 1 | C=CCNC(=O)C(=O)C(CCC1CC1)NC(=O)[C@@H]1[C@@H]2[C@H](CN1C(=O)[C@@H](NC(=O)OC(C)(C)C)C(C)(C)C)C2(C)C (stereo partly shown)
> 1 | C=CCNC(=O)C(=O)C(CCCC)NC(=O)[C@@H]1C[C@@H](CCC(C)C)CN1C(=O)[C@@H](NC(=O)OC(C)(C)C)C(C)(C)C (stereo partly shown)
> 1 | C=CCNC(=O)C(=O)C(CCC)NC(=O)[C@@H]1[C@H]2[C@@H](CN1C(=O)C(NCCC(C)c1ccccc1)C(C)(C)C)C2(C)C (stereo partly shown)
0.001 to 0.1 | CCCC(NC(=O)C1C2CCC(C2)N1C(=O)C(NC(=O)OC(C)(C)C)C1CCCCC1)C(=O)C(=O)NCC(=O)N[C@H](C(=O)N(C)C)c1ccccc1 (stereo partly shown)

Same assay, conditions: Table 6; HCV NS3/NS4A protease, 30° C., pH 6.5; read-out: Ki*

Structure (SMILES) | Ki [µM]
CN(C)C(=O)[C@@H](NC(=O)CNC(=O)C(=O)C(CCCC(F)(F)F)NC(=O)[C@@H]1[C@@H]2[C@H](CN1C(=O)[C@@H](NC(=O)OC(C)(C)C)C1CCCCC1)C2(C)C)c1ccccc1 (stereo partly drawn) (Boc-[Chg][Pro(3R,4S-CMe2)][X50]G[Phg]-NMe2) | 0.001 to 0.1
CC(C)(C)NC(=O)N[C@H](C(=O)N1C[C@H]2[C@@H]([C@H]1C(=O)NC(CCC(F)F)C(=O)C(N)=O)C2(C)C)C(C)(C)C (stereo partly shown) | 0.101 to 1
C=CCNC(=O)C(=O)C(CCCC)NC(=O)[C@@H]1[C@@H]2[C@H](CN1C(=O)[C@@H](NC(=O)OC1CCC(C)C1)C1CCCCC1)C2(C)C (stereo partly shown) | 0.101 to 1
CN(C)C(=O)[C@@H](NC(=O)CNC(=O)C(=O)C(NC(=O)[C@@H]1[C@@H]2[C@H](CN1C(=O)[C@@H](NC(=O)NC(C)(C)C)C(C)(C)C)C2(C)C)C1CC1)c1ccccc1 (stereo partly drawn) ({NHtBu-CO}-[Tle][Pro(3R,4S-CMe2)][X100]G[Phg]-NMe2) | 0.001 to 0.1

Further lines, results first:

Ki [µM] | Structure (SMILES)
0.101 to 1 | CC1(C)C[C@H]2[C@H](CN(C(=O)C(NC(=O)NC34CC5CC(CC(C5)C3)C4)C3CCCCC3)[C@@H]2C(=O)NC(CC2CCC2)C(=O)C(N)=O)O1 (stereo partly shown)
0.001 to 0.1 | COC[C@@H](NC(=O)N[C@H](C(=O)N1C[C@H]2[C@@H]([C@H]1C(=O)NC(CC1CC1)C(=O)C(N)=O)C2(Cl)Cl)C(C)(C)C)C(C)(C)C (stereo partly shown)
0.101 to 1 | CC(C)(CO)NC(=O)N[C@H](C(=O)N1C[C@H]2[C@@H]([C@H]1C(=O)NC(CC1CCC1)C(=O)C(N)=O)C2(Cl)Cl)C1CCCCC1 (stereo partly shown)
0.101 to 1 | C=CCNC(=O)C(=O)C(CCCC)NC(=O)[C@@H]1[C@@H]2[C@H](CN1C(=O)[C@@H](NC(=O)OC1CCCC1C)C1CCCCC1)C2(C)C (stereo partly shown)
